Measurements reported in PubChem BioAssay AID1458 (National Center for Advancing Translational Sciences (NCATS), 2008).
The campaign covered roughly 210,000 compounds. About 5,900 (2.8%) were called active. The shares of active, inactive and inconclusive entries below differ from those in the screen. Calls follow the shape of the dose curve; as a rule, active = well fitted activation curve with a large enough effect; inconclusive = small, poorly fitted or top-dose-only effect; inactive = no such curve, though single readings can be large or run the other way. Potencies of inconclusive entries are doubtful fits and often do not repeat.

Test: qHTS Assay for Enhancers of SMN2 Splice Variant Expression; also: nearly all actives have a fitted effect of over 55% in size; as to activity change, positive = activation: % of control where 0% means no effect
Conditions: HEK293 SMN2-luciferase splicing reporter, luminescence, 30-36 h; activity change, positive = activation: at 46.1 µM (top of the series)
Summary of the method: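 HEK293 cells carry an SMN2 […]–luciferase reporter in which exon 7 inclusion puts luciferase in frame. Cells were plated 10-12 h before compound addition, then incubated 30-36 h at 37C. ONE-Glo luminescence was read; sodium butyrate at 4.5 mM final served as control.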
Potency is read from the fitted curve at half-maximal effect; tags tell the direction and shape of the fitted curve.

Row | Compound | Potency | activity change, positive = activation
1 | O=C(COc1ccccc1Cl)NC(=S)Nc1cccc(NC(=O)c2ccccc2Cl)c1 | inconclusive: 12.6 µM [activator, single point] | –
2 | CCOc1ccc(NC(=O)c2cn(C3CCCCC3)c(=O)c3c2c2ccccc2n3C)cc1 | inconclusive: 35.5 µM [activator, single point] | –
3 | O=C(Cn1cnc2ccccc21)N1CCN(S(=O)(=O)c2ccccc2)CC1 | – | inactive: 3.39%
4 | COc1ccc(F)c(C2C(C#N)=C(N)Oc3n[nH]c(C(C)(C)C)c32)c1 (stereo unspecified) | inconclusive: 10 µM [activator, partial curve] | –
5 | Nc1ccc2c(c1)C/C(=C/c1ccco1)C2=O | inconclusive: 22.4 µM [activator, single point] | –
6 | c1ccc(-c2nc(NCc3cccnc3)c3oc4ccccc4c3n2)cc1 | – | inactive: -4.48%
7 | Cc1ccnc(NC(=O)Nc2cccc(F)c2)c1 | active: 3.55 µM | –
8 | O=C(NCCc1ccccc1)c1ccc(-c2ccccc2C(F)(F)F)o1 | – | inactive: 8.53%
9 | CCOc1ccc(NC(=O)CCC(=O)NNC(=O)Nc2cccc(Cl)c2)cc1 | – | inactive: -1.9%
10 | Clc1cccc(Nc2nnc(-c3ccccc3)c3ccccc23)c1 | – | inactive: -46.6%
11 | CCC(=O)Nc1c(C(=O)Nc2ccc3c(c2)OCCO3)oc2ccccc12 | active: 15.8 µM | –
12 | COc1ccc(-c2cc(OC(=O)c3ccccc3Cl)c3c(C)oc(C)c3c(=O)c2)cc1OC | – | inactive: 4.84%
13 | CCOC(=O)c1cnc2ccccc2c1Nc1cc(C(=O)O)ccc1C | – | inactive: -0.178%
14 | Clc1ccc2c(c1)[C@H]1OCC[C@H]1[C@@H](c1ccco1)N2 | active: 22.4 µM | –
15 | CCc1ccc(CNC(=O)COc2cc(=O)n(CC)c3ccccc23)cc1 | inconclusive: 35.5 µM [activator, single point] | –
16 | Cc1nc2cc(NC(=O)NCc3ccco3)ccc2n1C | inconclusive: 11.2 µM [activator, partial curve] | –
17 | CCN1CCN(C(c2cccs2)C(C)NC(=O)C(C)C)CC1 (stereo unspecified) | – | inactive: 6.84%
18 | O=C(CN1CCCC1)Nc1ccc2c(c1)CCC2 | inconclusive: 12.6 µM [activator, partial curve] | –
19 | O=C(Nc1ccc(Cc2ccncc2)cc1)c1ccc(Br)o1 | – | inactive: -9%
20 | Cc1nc(CC(=O)Nc2cc(Cl)ccc2C)cs1 | – | inactive: -1.8%
21 | CCC(C)[C@@H](N)C(=O)O (stereo partly specified) | – | inactive: 0.053%

Row | Compound | Potency | activity change, positive = activation
22 | O=C(NCc1ccccn1)NC1CCCCC1 | – | inactive: -7.73%
23 | Cc1n[nH]c(C)c1S(=O)(=O)N1CCCC(C(=O)Nc2ccc(Br)cc2)C1 (stereo unspecified) | – | inactive: -57.6%
24 | O=C(O)c1ccn(COc2ccc(Br)cc2)n1 | inconclusive: 35.5 µM [activator, single point] | –
25 | Cc1[nH]c2ccccc2c1/C=N/Nc1nc(Nc2ccc(F)cc2)nc(N2CCOCC2)n1 | – | inactive: -13%
26 | COc1cc(OC)cc(C(=O)Nc2ccc3oc(-c4ccccc4C)nc3c2)c1 | – | inactive: -1.09%
27 | CCOc1cc(-c2cc(-c3ccccc3)nc(N)c2C#N)ccc1O | inconclusive: 35.5 µM [activator, single point] | –
28 | CCN(CC)C(=O)CSC1=Nc2ccccc2C2=NC(Cc3c[nH]c4ccccc34)C(=O)N12 (stereo unspecified) | inconclusive: 0.0035 µM [activator, full curve, poor fit] | –
29 | O=C(c1cc(-c2cccs2)on1)N1CCOCC1 | inconclusive: 6.31 µM [activator, partial curve, poor fit] | –
30 | COc1ccc(NC(=O)c2ccco2)cc1NC(=O)c1c(F)c(F)c(OC)c(F)c1F | inconclusive: 4.47 µM [activator, partial curve, poor fit] | –
31 | O=C1NC(=Nc2ccccc2)S/C1=C\c1cccn1-c1ccccc1 | inconclusive: 25.1 µM [activator, single point] | –
32 | Cc1cc(/C=C2/C(=O)N(C)C(=S)N2C)ccc1N1CCCC1 | active: 12.6 µM | –
33 | CC(=O)Nc1ccc(S(=O)(=O)N(C)CCOCc2ccccc2)cc1 | – | inactive: -16.5%
34 | O=C(Nc1ccccc1)c1cnc[nH]1 | inconclusive: 15.8 µM [activator, partial curve] | –
35 | COc1ccc(/C=N/Nc2cn[nH]c(=O)c2Cl)cc1 | inconclusive: 25.1 µM [activator, single point] | –
36 | COc1ccc(-n2nnnc2SCc2nc3ccccc3s2)cc1 | – | inactive: -5.81%
37 | Cc1ccc(NC(=O)c2cn(-c3cccc(C)n3)cn2)cc1 | inconclusive: 11.2 µM [activator, partial curve, poor fit] | –
38 | O=C(Nc1cccc(-c2nc3ccccc3o2)c1)c1cc([N+](=O)[O-])ccc1N1CCOCC1 | – | inactive: 6.15%
39 | COc1ccc(CC(=O)N2CCc3ccccc32)cc1 | inconclusive: 3.98 µM [activator, full curve, poor fit] | –
40 | COc1ccc(C(=O)N2CCC[C@@]3(CCN(CC(C)C)C3)C2)cc1 | – | inactive: -1.24%
41 | CC(C)OCCCNC(=O)CCCn1c(=O)[nH]c2ccsc2c1=O | – | inactive: 3.41%
42 | CCCc1cc(=O)[nH]c(SCc2ccccc2)n1 | inconclusive: 0.158 µM [activator, full curve, poor fit] | –

Row | Compound | Potency | activity change, positive = activation
43 | CCOc1cnc(-c2c(-c3c(Cl)cccc3Cl)noc2C)o1 | – | inactive: -9.12%
44 | Cc1ccc(/C=C2\SC(N)=NC2=O)s1 | inconclusive: 10 µM [activator, partial curve] | –
45 | Cc1c(CNCc2ccc(OC(C)C)cc2)c(C(=O)O)c(C)n1Cc1ccc(Cl)cc1 | – | inactive: 16.4%
46 | N#Cc1c(NC(=O)CSc2nnc(-c3ccccc3)o2)sc2c1CCCC2 | inconclusive: 8.91 µM [activator, partial curve] | –
47 | Cc1ccc2c(c1C)NC(=O)C2(O)CC(=O)c1ccc2c(c1)OCO2 (stereo unspecified) | inconclusive: 0.0032 µM [activator, full curve, poor fit] | –
48 | CC(=O)Nc1ccc(NC(=O)CSc2ccc(-c3ccc4c(c3)OCO4)nn2)cc1 | inconclusive: 35.5 µM [activator, single point] | –
49 | CC1CCc2c(sc(NC(=O)c3ccc(Cl)cc3Cl)c2C#N)C1 (stereo unspecified) | – | inactive: 0.3%
50 | Nc1nc(SCC(=O)Nc2cccc(Oc3ccccc3)c2)n[nH]1 | inconclusive: 5.62 µM [activator, single point] | –
51 | CCc1ccc2nc(SCC(=O)N(CC)CC)c(C#N)cc2c1 | – | inactive: -10.9%
52 | O=C(CC1S/C(=N/N=C/c2c[nH]c3ccccc23)NC1=O)Nc1ccccc1 (stereo unspecified) | – | inconclusive: 30.9% [activator]
53 | Cc1cccc(N2CC(C)Cn3c2nc2c3c(=O)n(CC(=O)O)c(=O)n2C)c1 (stereo unspecified) | – | inactive: -5.39%
54 | CCOn1c(=O)c(-c2ccc(OC)c(OC)c2)[n+]([O-])c2ccccc21 | inconclusive: 0.794 µM [activator, partial curve] | –
55 | COc1ccc2oc(=O)c(-c3nc(C)cs3)cc2c1 | active: 14.1 µM | –
56 | COc1cc(CNCCSc2nnnn2C)cc(OC)c1OC | inconclusive: 2.24 µM [activator, full curve, poor fit] | –
57 | CCc1cccc(NC(=O)CCc2nc3cccnc3n2-c2ccccc2)c1 | – | inactive: -15.4%
58 | Cc1cc(C)nc(N/N=C/c2ccccc2OCc2ccc(Br)cc2)n1 | active: 12.6 µM | –
59 | CSc1ncc(Cl)c(C(=O)Nc2ccc(S(=O)(=O)N3CCCC(C)C3)cc2)n1 (stereo unspecified) | – | inactive: -9.9%
60 | Cc1cccc(NC(=S)NCC(c2cccnc2)N(C)C)c1 (stereo unspecified) | – | inconclusive: 30.3% [activator]
61 | Cc1ccc(OCC(=O)N/N=C/C=C/c2ccco2)cc1C | inconclusive: 4.47 µM [activator, single point] | –
62 | FCCCOc1ccc(-c2nccc(-c3ccc(Cl)cc3)n2)cc1 | inconclusive: 35.5 µM [activator, single point] | –
63 | CCc1ccc(-n2c(N3CCN(c4cccc(Cl)c4)CC3)nc3ccccc3c2=O)cc1 | – | inactive: -12.1%

Row | Compound | Potency | activity change, positive = activation
64 | CC(=O)c1c(C)[nH]c(C(=O)NCCC2=CCCCC2)c1C | inconclusive: 6.31 µM [activator, partial curve] | –
65 | CC(C)OCCCNC(=O)C(=O)Nc1ccc2nc3n(c(=O)c2c1)CCCCC3 | – | inactive: 5.86%
66 | Cc1ccc2nc(-c3c[nH]c4ccccc34)c(Nc3ccccc3C)n2c1 | inconclusive: 12.6 µM [activator, single point] | –
67 | COc1cccc(NC(=O)Cn2c(=O)n(CC(=O)NCc3ccc(C)cc3)c(=O)c3sccc32)c1 | – | inactive: -11.1%
68 | COc1ccc(N/C(C)=C/C(=O)c2ccccc2)cc1 | active: 12.6 µM | –
69 | Cc1ccc(C(=O)c2cc3c(cc2N)OCCO3)cc1 | inconclusive: 0.708 µM [activator, full curve] | –
70 | CC1CCc2c(C(=O)NCc3ccccn3)csc2C1 (stereo unspecified) | inconclusive: 10 µM [activator, partial curve, poor fit] | –
71 | CCCCN(C)CCCNC(=O)Cn1ncc2c3ccccc3n(Cc3ccccc3F)c2c1=O | – | inactive: 1.37%
72 | CCc1ccc(-c2nc(-c3ccncc3)no2)cc1 | active: 7.94 µM | –
73 | Cc1ccccc1OCCN1C(=O)C(=O)c2cccc(C)c21 | – | inactive: -9.35%
74 | CCOC(=O)N1CCN(C(=O)C2CCN(S(=O)(=O)c3cc(Cl)ccc3Cl)CC2)CC1 | – | inactive: -30.7%
75 | Nc1ccc(Cc2nc3cc4ccccc4cc3[nH]2)cc1 | active: 12.6 µM | –
76 | CCOC(=O)c1[nH]c2ccccc2c1NC(=O)c1ccc(S(=O)(=O)N2CCOCC2)cc1 | inconclusive: 3.16 µM [activator, single point] | –
77 | COc1ccc(-c2cc(=O)oc3cc(OC(=O)C4CCCCC4)c(Cl)cc23)cc1 | – | inactive: -36.2%
78 | O=C(Oc1oc(-c2ccco2)nc1C=Nc1ccccc1)c1ccoc1 | – | inactive: 8.8%
79 | Cc1nn(CC(=O)Nc2ccc3c(c2)nc(CCN2CCCCC2)n3C)c(=O)c2ccccc12 | – | inactive: 19.1%
80 | CCOc1ccc(-c2cc(N3C(=O)Nc4ccccc4N3O)on2)cc1 | – | inactive: 16%
81 | Cc1ccc(Nc2nc(N)nc(CN3CCN(C)CC3)n2)cc1 | inconclusive: 11.2 µM [activator, partial curve] | –
